# Test results: the antibiotic and cytotoxicity screens of Wong et al. (2023)
# The list shows a part of the results.
# Tests used:
# [1] = system: HSkMC (human skeletal muscle cells); test: cytotoxicity call (relative viability < 0.9); conditions: 10 µM
# [2] = system: HepG2; test: cytotoxicity call (relative viability < 0.9); conditions: 10 µM
# [3] = system: S. aureus RN4220; test: growth inhibition call (relative growth <= 0.2); conditions: 50 µM
Structure (SMILES),cytotoxicity call [1],cytotoxicity call [2],growth inhibition call [3]
C[C@@H]1CCCCO[C@@H](CN(C)Cc2ccc(C(F)(F)F)cc2)[C@@H](C)CN([C@H](C)CO)C(=O)c2cc(N(C)C)ccc2O1,inactive,inactive,inactive
C[C@H](CO)N1C[C@H](C)[C@H](CN(C)C(=O)Nc2ccccc2)OCCCC[C@H](C)Oc2ccc(NC(=O)Nc3ccc4c(c3)OCO4)cc2C1=O,inactive,inactive,inactive
CCN(CC)CCCCNc1ncc2cc(-c3c(Cl)cccc3Cl)c(NC(=O)NC(C)(C)C)nc2n1,inactive,active,inactive
COc1ccc(C(=O)Nc2cccc(CN3C(=O)[C@]4(O[C@H](CC(=O)N5CCC[C@H]5CO)[C@@H]([Si](C)(C)c5ccc(OC)cc5)[C@@H]4C)c4ccccc43)c2)cc1,inactive,inactive,inactive
Cc1noc(C)c1NC(=O)N(C)C[C@@H]1Oc2c(NS(=O)(=O)c3c(C)noc3C)cccc2C(=O)N([C@@H](C)CO)C[C@@H]1C,inactive,inactive,inactive
Nc1nc(=O)c2ncn([C@H]3C[C@H](O)[C@@H](CO)O3)c2[nH]1,inactive,inactive,inactive
CO[C@@H]1CN(C)C(=O)c2ccc(NC(=O)Nc3cccc(Cl)c3)cc2OC[C@@H](C)N(C(=O)Nc2c(C)noc2C)C[C@H]1C,inactive,inactive,inactive
CO[C@@H]1CN(C)C(=O)c2cc(NC(=O)CC(F)(F)F)ccc2OC[C@@H](C)N(C(=O)C2CCOCC2)C[C@@H]1C,inactive,inactive,inactive
CCCNC(=O)N(C)C[C@H]1Oc2cc(C#Cc3ccccn3)ccc2S(=O)(=O)N([C@@H](C)CO)C[C@@H]1C,inactive,inactive,inactive
COc1c(O)cc2c(c1O)C1OC(CO)C(O)C(O)C1OC2=O (stereo not drawn),inactive,inactive,inactive
CCOC(=O)Cc1csc(/C(=N/O)C(N)=O)n1,inactive,inactive,inactive
CC(C)NC(=O)Nc1ccc2c(c1)CC(=O)N([C@H](C)CO)C[C@H](C)[C@@H](CN(C)S(=O)(=O)c1ccc(Cl)cc1)O2,inactive,inactive,inactive
COCCNC(=O)C[C@H]1C[C@H]2c3cc(NC(=O)CN(C)C)ccc3O[C@H]2[C@H](CO)O1,inactive,inactive,inactive
COc1ccc(CNC(=O)C[C@@H]2C[C@H]3c4cc(NS(=O)(=O)c5ccc(F)cc5)ccc4O[C@H]3[C@H](CO)O2)cc1,inactive,inactive,inactive
O=C(Nc1cc(Cl)ccc1Cl)c1cc(Br)ccc1NS(=O)(=O)c1ccc(Cl)c([N+](=O)[O-])c1,inactive,active,active
CN1CCN(C(=O)C[C@H]2C=C[C@@H](NS(=O)(=O)c3cccc(F)c3)[C@@H](CO)O2)CC1,inactive,inactive,inactive
O=C(C[C@H]1C=C[C@@H](NC(=O)CN2CCOCC2)[C@H](CO)O1)NCCc1ccccc1,inactive,inactive,inactive
Nc1ccc(Sc2ccc3ccccc3c2Cl)c(Cl)c1,inactive,inactive,active
Cc1noc(C)c1S(=O)(=O)N(C)C[C@@H]1Oc2ccc(NS(=O)(=O)c3ccc(Cl)cc3)cc2C(=O)N([C@H](C)CO)C[C@@H]1C,inactive,inactive,inactive
C[C@@H]1CCCCO[C@@H](CN(C)C(=O)Nc2ccc3c(c2)OCO3)[C@@H](C)CN([C@@H](C)CO)C(=O)c2cc(NC(=O)Cc3ccccc3)ccc2O1,inactive,inactive,inactive
C[C@@H]1CN([C@@H](C)CO)C(=O)c2cc(Br)cnc2O[C@@H]1CN(C)C(=O)Nc1ccc(F)cc1,inactive,inactive,inactive
COc1ccc(NC(=O)Nc2ccc3c(c2)C(=O)N([C@H](C)CO)C[C@H](C)[C@@H](CN(C)S(=O)(=O)c2c(C)noc2C)OCCCC[C@@H](C)O3)cc1,inactive,inactive,inactive
CO[C@@H]1CN(C)C(=O)c2ccc(NC(=O)Nc3ccccc3F)cc2OC[C@H](C)N(Cc2ccccc2C(=O)O)C[C@H]1C,inactive,inactive,inactive
CN(CCOc1ccc(CC2SC(=O)NC2=O)cc1)c1ccccn1.O=C(O)C=CC(=O)O (stereo not drawn),inactive,active,inactive
Cc1ccc(S(=O)(=O)Nc2ccc3c(c2)CC(=O)N([C@H](C)CO)C[C@@H](C)[C@H](CN(C)Cc2ccncc2)O3)cc1,inactive,inactive,inactive
CCS(=O)(=O)N1C[C@]2(CCN(CC2)C(=O)Cc2ccccc2)c2c(n(c3cc(ccc23)OC)C)[C@@H]1CO,inactive,inactive,inactive
